# According to PubChem BioAssay AID2100 (National Center for Advancing Translational Sciences (NCATS), 2009):
# The campaign covered roughly 300,000 compounds. About 1,200 (0.4%) were called active. Inconclusive results, whose numbers are uncertain, are shown with a selection of clear calls. The call rests on the fitted dose curve; in most records, active means well fitted inhibition curve with a large enough effect; inconclusive means small, poorly fitted or top-dose-only effect, or another doubt; inactive means no such curve, though single readings can be large or run the other way. Potencies of inconclusive entries are doubtful fits and often do not repeat.
# Target: Lysosomal alpha-glucosidase (Homo sapiens) (UniProt P10253)
# Experiment: qHTS Assay for Inhibitors and Activators of Human alpha-Glucosidase Cleavage of Glycogen;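 on activity change, negative = inhibition: 0% = full enzyme reaction and -100% = no-enzyme basal signal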
# Conditions: recombinant GAA, glycogen substrate, Amplex Red glucose oxidase fluorescence; activity change, negative = inhibition: at 76.4 µM (top of the series) unless noted
# Procedure, shortened: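 Recombinant human enzyme (4 nM); glycogen substrate; 37 C, 40 min, pH 5.0. Readout: coupled glucose oxidase/Amplex Red fluorescence.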
# Potency means the concentration at half of the fitted maximal effect.
SMILES,Potency,"activity change, negative = inhibition"
CC1=[N+](C)N(c2ccccc2)C(=O)C1N=Cc1c(Cl)cccc1Cl (stereo not drawn),"inconclusive: 14.1 µM [inhibitor, partial curve]",
COc1ccc(N2CCN(CCCNC(=O)C3CCCN(S(=O)(=O)c4cnc[nH]4)C3)CC2)cc1 (stereo not drawn),"inconclusive: 28.2 µM [inhibitor, single point]",
COc1ccc(Nc2nc(C)cc(C)c2C(N)=O)c(OC)c1,"inconclusive: 22.4 µM [inhibitor, partial curve]",
C#CCOc1ccc(C2C3=C(COC3=O)Nc3cc4c(cc32)OCO4)cc1OC (stereo not drawn),"inconclusive: 25.1 µM [inhibitor, single point]",
CCNC(=S)NNC(=O)c1cc(CC(C)C)nc2ccccc12,"inconclusive: 35.2 µM [inhibitor, single point]",
O=C(NNc1ccccc1Br)C(=O)n1ccc2ccccc21,"inconclusive: 9.92 µM [inhibitor, partial curve]",
COc1cc(C2NC(=O)NC(C)=C2C(=O)OCc2ccc(C)cc2)cc(OC)c1OC (stereo not drawn),,inactive: 5.96% [at 76.3 µM]
CC1CCCCC1NC(=O)C1CCN(S(=O)(=O)N2CCCCCC2)CC1 (stereo not drawn),,inconclusive: 40.5% [activator]
CN(NC1CC(=O)N(c2ccccc2)C1=O)c1ccccc1 (stereo not drawn),"inconclusive: 22.2 µM [inhibitor, single point]",
O=C(Cn1c(=O)n(Cc2ccccc2)c(=O)c2sc3ccccc3c21)Nc1ccccc1,active: 7.94 µM,
NNC(=O)c1[nH]c2ccccc2c1-c1ccccc1,"inconclusive: 39.5 µM [inhibitor, single point]",
O=C(O)c1cccc(-c2ccc(/C=N/Nc3ccc([N+](=O)[O-])cc3)o2)c1,"inconclusive: 20 µM [inhibitor, partial curve]",
CCn1c(CCCc2ccc(OC)c(C)c2)n[nH]c1=S,"inconclusive: 50.1 µM [inhibitor, single point]",
Cc1nn(-c2ccccc2)c(Cl)c1/C=N/Nc1ccc(Cl)c(C(=O)O)c1,"inconclusive: 39.5 µM [inhibitor, single point]",
CCOC(=O)/C=C(\C)Sc1cc(O)c2ccccc2c1O,,inactive: -26.4%
Cc1c(CN2CCCCC2)c(O)n(CCCO)c(=O)c1C#N,,inactive: 3.69%
CC(C)(C)C(=O)/C=C/Nc1ccccc1O,active: 14.1 µM,
CNC(=S)N/N=C(\C)c1cccc(C(F)(F)F)c1,"inconclusive: 28.2 µM [inhibitor, single point]",
CC(C)Oc1ccc(C(=O)N(Cc2ccc(N(C)C)cc2)C2CCS(=O)(=O)C2)cc1 (stereo not drawn),"inconclusive: 11.2 µM [inhibitor, partial curve]",
CC(=O)c1ccc(NC(=O)C2CCCN2S(=O)(=O)c2cccc3cccnc23)cc1 (stereo not drawn),"inconclusive: 70.8 µM [inhibitor, partial curve, poor fit]",
Nc1ccccc1Nc1ccccc1,"inconclusive: 24.9 µM [inhibitor, single point]",
COc1ccc(-c2nc(C#N)c(NCc3cccnc3)o2)cc1OC,"inconclusive: 24.9 µM [inhibitor, partial curve]",

SMILES,Potency,"activity change, negative = inhibition"
O=C(O)c1ccc(N/N=C/c2cccc(F)c2)cc1,"inconclusive: 17.8 µM [inhibitor, partial curve]",
O=C(O)c1ccc(N/N=C/c2cn(-c3ccccc3)nc2-c2cccs2)cc1,"inconclusive: 24.9 µM [inhibitor, single point]",
Cc1[nH]c2ccccc2c1N=Nc1c(C)n(C)n(-c2ccccc2)c1=O,"inconclusive: 11.2 µM [inhibitor, partial curve]",
N#C/C(=C\c1cc(Cl)cc(Cl)c1O)C(=O)NC1CCCCC1,"inconclusive: 11.1 µM [inhibitor, partial curve, poor fit]",
CC(=O)c1cccc(NC(=S)NNC(=O)c2ccco2)c1,"inconclusive: 39.8 µM [inhibitor, partial curve]",
Clc1ccc(-c2csc(N/N=C/c3cccnc3)n2)c(Cl)c1,"inconclusive: 14.1 µM [inhibitor, partial curve]",
CCOC(=O)CC1C(=O)NCCN1c1nc2ccc(C)cn2c(=O)c1/C=C1\SC(=S)N(C(C)CC)C1=O (stereo not drawn),"inconclusive: 35.2 µM [inhibitor, single point]",
COc1cccc(NC(=O)Cn2cc(S(=O)(=O)Cc3ccccc3F)c3ccccc32)c1,,inactive: -15.8% [at 76.3 µM]
COc1ccc(N2CCN(Cc3nc4ccccc4c(=O)[nH]3)CC2)cc1,"inconclusive: 44.3 µM [inhibitor, partial curve, poor fit]",
COc1ccc2c(c1)Sc1ccccc1N2,"inconclusive: 28.2 µM [inhibitor, partial curve]",
COc1ccc(C(=O)COC(=O)CN2CC(=O)Oc3ccccc32)cc1Br,active: 3.14 µM,
COc1ccc(NC(=O)C(=O)NCCN2CCN(C(=O)C(c3ccccc3)c3ccccc3)CC2)cc1,"inconclusive: 10 µM [inhibitor, partial curve]",
O=C(O[C@@H]1OC2COC(=O)c3cc(O)c(O)c(O)c3-c3c(cc(O)c(O)c3O)C(=O)O[C@@H]([C@H]1O)[C@@H]2O)c1cc(O)c(O)c(O)c1,"inconclusive: 4.47 µM [inhibitor, full curve]",
Cc1nnc(-c2cnn(C)c2N)n1Cc1ccc(Cl)cc1,,inactive: -0.0448%
COc1ccc(NC(=O)CSc2nc3ccccc3nc2N2CCCC2)c(OC)c1,"inconclusive: 10 µM [inhibitor, full curve]",
Cc1ccc(S(=O)(=O)N2CCN(C(=O)N(c3ccccc3)c3ccccc3)CC2)cc1,"inconclusive: 17.8 µM [inhibitor, single point]",
C/C(=N\Nc1cc(C(F)(F)F)ccc1Cl)c1ccccc1O,"inconclusive: 14.1 µM [inhibitor, partial curve]",
Oc1ccc(/C=N/Nc2ncc(Br)cn2)c(O)c1,active: 28.2 µM,
CCOc1ccc(S(=O)(=O)N2CCN(c3cccc(C(F)(F)F)c3)CC2)cc1OCC,,inactive: 2.08% [at 76.3 µM]
COc1ccc(NC(=O)N2CCC(Cc3ccccc3)CC2)cc1,,inactive: 17.3%
CSCCOC(=O)C1=C(C)Nc2ccc(C)cc2S1,"inconclusive: 28.2 µM [inhibitor, single point]",
